These results are taken from paper PMC12136788.

The list shows a part of the results.

B1: chr7:95294748:95294849:+|3pUTR|ENSG00000158528|msi1|FALSE|bound_elsewhere (ssRNA)
RNA: GGGAGUUCUACAGUCCGACGAUCGAGAAAGCCGACAGAAUCAGCUUCUCCUGGAAAGUGAAAGCAUCAAGUUCUAUUUAUGGUAGACAGAGGGUCCUUAUUUGCUUGUCCGUGGUGUCUAUGUGGGCCUAUUGAGGGAAUGGUCAACAGAGGAUUGAGCAUCA
B2: ENSG00000070961:be:win_5601|3pUTR|ENSG00000070961|bound_else_gene|NA|bound_elsewhere_windowed (ssRNA)
RNA: GGGAGUUCUACAGUCCGACGAUCGAGGUAGCAUGAUAUGCUGGAAAGCAUAUUAGACUAGGAGUCAAGACCUGGUUUCUAGUCUUGGUUUUGCCAUUAAUGUGCUGCAUGAUCUUGGGAAAAUCAUUUACCCUAAAUAAGGGUCAACAGAGGAUUGAGCAUCA
B3: chr10:86890108:86890218:+|CDS|ENSG00000107779|unk|total|mutant (ssRNA)
RNA: GGGAGUUCUACAGUCCGACGAUCUCAUGGCACUGGGAUGAAAUCAGACUCCGACCAGAAAAAGUCAGAAAAUGGAGUAACCUCCGCACCAGAGGAUACCUUGCCUUUUUUAAAGUGCUAUUGCUCAGGGCACUGUCCAGAUGACAACAGAGGAUUGAGCAUCA
B4: chr20:63196482:63196583:-|3pUTR|ENSG00000149658|msi1|total|mutant (ssRNA)
RNA: GGGAGUUCUACAGUCCGACGAUCUGAUUUUUGCCCAGAUGGAUCUGCAUUUAUUUGUACUUUUUCUAUGUAUUAUAAUCCUGCCGAAGUCACUAAUAAAGGAGUAUUUUUUUUGUCAGCUUAUCAAUCAGACUGAUCUAAUGUCAACAGAGGAUUGAGCAUCA
B5: chr19:41259979:41260080:+|3pUTR|ENSG00000167601|msi1|total|mutant (ssRNA)
RNA: GGGAGUUCUACAGUCCGACGAUCCCUGUCUUCCUACCUAUCCCACCUCCAUCCCAGACAGGUCCCUCCCCUUCUCUGUGCAGCCGCAUCACCUUGAAAGCAGCCGCAUCACCAUCUGUAAAAGGAAGGGGUUGGAUUGCAAUACAACAGAGGAUUGAGCAUCA
B6: chr5:150649000:150649101:+|CDS|ENSG00000171992|msi1|total|mutant (ssRNA)
RNA: GGGAGUUCUACAGUCCGACGAUCCAGGCCUUUUGGGAUCCAGGCGCCAGGGGGCACCAGCCAGAUGGAGAGGAGCCCCAUGCCCGAGAGACGACAUUUUGGGGAGAAGGCCCCGGCUCCCCAGCCCCCCAGUUUGCCAGACAGCAACAGAGGAUUGAGCAUCA

In the test the target is T1, UNK ZnF1-6 (called full-length) (human, UniProt Q9C0B0 30-357).
T1 sequence: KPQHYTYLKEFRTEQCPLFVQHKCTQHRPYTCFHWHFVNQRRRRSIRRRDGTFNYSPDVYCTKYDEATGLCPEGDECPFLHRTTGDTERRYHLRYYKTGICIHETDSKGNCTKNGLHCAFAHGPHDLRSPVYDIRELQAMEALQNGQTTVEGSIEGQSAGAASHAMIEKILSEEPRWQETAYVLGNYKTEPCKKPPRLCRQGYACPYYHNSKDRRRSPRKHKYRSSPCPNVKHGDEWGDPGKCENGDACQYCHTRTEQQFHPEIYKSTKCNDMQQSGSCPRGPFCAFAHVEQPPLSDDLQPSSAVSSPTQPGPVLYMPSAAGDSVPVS
The experiment in a line: nsRBNS (natural sequence RNA bind-n-seq); RBNS binding buffer (assumed for nsRBNS): 25 mM Tris pH 7.5, 150 mM KCl, 3 mM MgCl2, 0.01% Triton X-100, 500 ug/ml BSA, 20 U/ml SUPERase-In, 4 C; UNK is unkempt and MSI1 is Musashi-1; names of the RNAs are library labels; protein concentration not given here; high values mean tight binding.
For B1, the binding signal is 0.643 enrichment R.

In turn, B2 registered a binding signal of 0.286 enrichment R.

Consider B3, for which the binding signal came out at 0.501 enrichment R.

The molecule B4 yielded a binding signal of 0.665 enrichment R.

As to B5, the binding signal worked out at 0.682 enrichment R.

With B6, the binding signal turned out to be 0.743 enrichment R.
